We go through 42 molecules from ChEMBL document CHEMBL4888484, “Replenishing the malaria drug discovery pipeline: Screening and hit evaluation of the MMV Hit Generation Library 1 (HGL1) against asexual blood stage Plasmodium falciparum ,using a nano luciferase reporter read-out” (2022).

Out of some 150,000 compounds screened, about 540 (0.36%) showed an effect of 50% or more. This is one part of the list.

In this test the test system is Plasmodium falciparum. The test is described as follows: Primary screen in NF54 nanoGlo assay, in single point, at 2uM, 72h; a lower Z score goes with more inhibition. The class given is functional, Erythrocyte. The conditions noted are these: timepoint 72 hour.
Turning to `O=C(C[C@H]1COc2cc(F)ccc2N1Cc1ccccc1)NCCCN1CCCCC1`, the “% Inhibition” value is -7% and the Z score was 1.05.
With `CC(C)(c1ccccc1)c1nc([C@@H]2COCCN2)no1`, the “% Inhibition” value is -18% and the Z score is reported as 2.16.
As to `COc1ccc(NC(=O)N2CC[C@H]3COC(=O)N3c3cc(F)ccc3C2)cc1`, the “% Inhibition” value is 7% and the Z score is -0.89.
As for `Cn1nc(CN(Cc2ccco2)C(=O)N2CCOCC2)c2c1CCC2`, the “% Inhibition” value was determined as 5% and the Z score is -0.83.
Taken in the same sequence, the figures for `O=C1N(CCc2c[nH]c3c(Cl)cccc23)C(=O)C23CC(CN12)C3` were -1% and 0.1.
Taken in the same sequence, the figures for `OC(CC(O)c1ccccc1)CN1CCOCC1` (centres undefined) were -2% and 0.23.
Taken in the same sequence, the figures for `CC(C)c1noc([C@H](C)NS(=O)(=O)N2CCCC2)n1` were -19% and 2.01.
On to `Cc1cccc(CNC(=O)CN(C)C)c1Br`, for which the “% Inhibition” value was -4% and the Z score was 0.84.
Regarding `COc1ccnc(NCc2[nH]nc(C)c2C)n1`, the “% Inhibition” value is -2% and the Z score came to 0.26.
With `OC1(C2CC2)CN(c2nc3ccccc3s2)C1`, the “% Inhibition” value came out at 2% and the Z score was -0.24.
In the same order, the values of `Nc1nc(N2CCCCCC2)nc2ccccc12` are 3% and -0.37.
In the same order, the values of `O=C(Nc1ccc(C(F)(F)F)cc1)C1=NCCN1` are -9% and 1.26.
In the same order, the values of `CC1(CNC(=O)[C@@H]2NCCOc3ccccc32)CC(F)(F)C1` are -8% and 1.62.
With `CC(C)CC1(CNC(=O)c2cnc(-c3ncccn3)s2)CC1`, the “% Inhibition” value is reported as -8% and the Z score amounted to 1.21.
For `O=C(CN1CCN(S(=O)(=O)c2ccc(Br)cc2)CC1)Nc1ccc2c(c1)OCCO2`, the “% Inhibition” value worked out at 6% and the Z score is on record as -0.75.
Consider `Cc1noc(C)c1CCOc1ccc(O[C@H]2CCCCNC2=O)cc1`, for which the “% Inhibition” value came out at 2% and the Z score was -0.24.
In the same order, the values of `c1ccc2nc(N3CCC4(CCCN4Cc4ccc(-c5cc[nH]n5)o4)CC3)cnc2c1` are -10% and 1.34.
Taken in the same sequence, the figures for `CCCn1cc(N[C@@H](C)C(=O)N(C)C(C)C)cn1` were -7% and 1.02.
Consider `CCn1cnnc1CC1CCN(C(=O)CCS(=O)(=O)c2ccc3c(c2)CCN3C(C)=O)CC1`, for which the “% Inhibition” value is reported as -5% and the Z score turned out to be 0.95.
In the same order, the values of `Cc1cccc(CN2CCC[C@H]2C(=O)NC2CC2)c1C` are 3% and -0.4.
In the same order, the values of `CC[C@H](NC(=O)Nc1cccc(C(=O)N(C)C)c1C)c1cc(C)ccn1` are -1% and 0.17.
Turning to `Cc1cc(CC(=O)Nc2ccc(Cl)cc2O)n[nH]1`, the “% Inhibition” value was -13% and the Z score is reported as 2.25.
In the same order, the values of `c1ccc(CN2CCC(NC3(c4ccccc4)CCC3)CC2)cc1` are -8% and 1.06.
In the same order, the values of `CN(C(=O)CCC1CCOC1)C1CCCN(Cc2ccccc2)C1` (centres undefined) are 21% and -2.61.
In the same order, the values of `CC(C)C[C@](C)(NC(=O)c1cccc(-c2ccoc2)c1)C(N)=O` are 0% and 0.04.
As for `Cc1ccccc1[C@H]1CCc2nc(C(=O)N3CCCCC3)cn2C1`, the “% Inhibition” value is recorded as -20% and the Z score came to 1.93.
In the same order, the values of `COc1ccc(CCOc2cc(C)n(C)n2)cc1` are -27% and 2.91.
As for `CC(=O)N1CCC[C@H]1C(=O)NC(C)Cc1ccccc1Cl` (some centres undefined), the “% Inhibition” value was 7% and the Z score was -0.98.
In the same order, the values of `CC(=O)N1CC[C@@H]2CN(C(=O)c3ccc(C)cc3Cl)C[C@@H]2CC1` are -4% and 0.53.
For the molecule `Cc1cc(N(C)CC(=O)N2CCCC2)n2ncnc2n1`, the “% Inhibition” value is reported as -9% and the Z score is on record as 0.85.
Taken in the same sequence, the figures for `CN(CCO)Cc1cc2n(n1)CCN(c1ccc(C(F)(F)F)cn1)C2` were 10% and -1.38.
In the same order, the values of `COc1cccc(N2CCN(c3cc4n[nH]c(=O)n4cn3)CC2)c1` are 36% and -0.7.
Consider `Cc1noc(-c2ccc(OC(F)(F)F)cc2)c1C(=O)N[C@H]1CCC[C@@H]1OCc1ccccc1`, for which the “% Inhibition” value is -5% and the Z score is recorded as 0.55.
As to `O=C1OCCC1N1CCCC(Cn2cncn2)C1` (centres undefined), the “% Inhibition” value is on record as 5% and the Z score is -0.63.
For the molecule `CC1CCCC1(C#N)NC(=O)CCn1cccn1` (centres undefined), the “% Inhibition” value was 2% and the Z score is reported as -0.24.
In the same order, the values of `CS(=O)(=O)c1ccc2nc(NC(=O)C3CCCC3)sc2c1` are -1% and 0.28.
For `CN(C)Cc1csc(CNC(=O)Nc2cc3n(n2)CCCC3)n1`, the “% Inhibition” value is -3% and the Z score was 0.66.
For the molecule `Cc1cc(C(=O)N2C[C@@H]3CC[C@H]2CN(Cc2cscn2)C3)c(C)o1`, the “% Inhibition” value is on record as -3% and the Z score was 0.61.
Taken in the same sequence, the figures for `Cc1cccc(-c2nccc(Oc3ccc(C(=O)Nc4ccc5c(c4)OCCO5)cc3)n2)c1` were -9% and 1.68.
Taken in the same sequence, the figures for `COCCC1(CNS(=O)(=O)c2cccc3c2OC(C)(C)C3)CC1` were -5% and 0.54.
As for `O=C(NC1CCCC(C2CC2)C1)c1cccc[n+]1[O-]` (centres undefined), the “% Inhibition” value is 1% and the Z score is -0.07.
In the case of `CCN(Cc1nn(-c2ccccc2)c2c1CN(Cc1cc(F)ccc1F)CC2)C(=O)NCc1ccccc1`, the “% Inhibition” value is on record as -11% and the Z score is recorded as 1.62.
